Results: the supplement of paper PMC11417369
± gives the standard deviation of the averaged measurements. Some of the results follow.

test system: PfAP2-I AP2 domain 3 (GST-tagged); test: gcPBM binding intensity (ln(normalized median fluorescence intensity)); higher = stronger DNA binding
How it was run: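 Each value is the highest Masliner-normalised natural-log median intensity across replicate spots of either orientation of a probe. The probes were primer-extended double-stranded 36-bp intergenic genomic sequences on an Agilent 4 × 180k array, alongside negative controls, exposed for 1 h to GST-tagged P. falciparum DNA-binding domains expressed in E. coli. Bound protein was picked up with Alexa488 anti-GST antibody and scanned at 488 nm.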

Sequence	gcPBM binding intensity (ln)
ATATATATATTTTATGCATGTTCATTTTCTATATTT [TGCATGCA_site442]	8.96 ± 0.2
TTTCTTACAACAACAACAAAAAAAAATAAATAAAAT [GTGCAC_negctrl_site711]	7.83 ± 0.67
ATATTTTATATTTCTTGTACATATATTTGTAGATAT [XGTACX_site1140]	7.75 ± 0.47
TATTATTTTTTTATTCTATTAAAAAGAAAAAAATGA [CACACA_negctrl_site407]	7.5 ± 0.11
AATTTATTTTTAAAAAGTACATACTTAAGAAAACGA [XGTACX_site3660]	8.12 ± 0.29
GATTCATTTCATAATACACACAACAAATATTTCAAA [CACACA_site120]	8.04 ± 0.29
TCGACAATTTTATAAAGTACTTATTAGAAATATGAA [XGTACX_site7133]	7.6 ± 0.26
CCATTTAAAACATTTTGTACTTATTTTACATTTCTG [XGTACX_site4270]	7.88 ± 0.59
AAACAAATAAAATTTATTAAAAAGGTCATATTATTA [CACACA_negctrl_site85]	7.26 ± 0.44
AGAAAAAAAAATTATACATGCATATACGTTTATTTT [TGCATGCA_site529]	7.64 ± 0.83
TATTAATAAATTTATAAAACAGGTATATATATATAT [CACACA_negctrl_site615]	9.3 ± 0.48
ATATATATATATATATGTACACACATCAATCATATT [XGTACX_site4005]	9.49 ± 0.34
AGAGTACAAGTAAATACACACATATAGATGAAAATA [CACACA_site6635]	7.93 ± 0.72
AAGAAAACTTAAAATAAAAGCATATTTTATCTTACA [TGCATGCA_negctrl_site366]	7.25 ± 0.36
TGCAGTCTGGAGAAGAGTACATAGTATCTGGTAGCT [XGTACX_site2021]	7.71 ± 0.9
ATGTATATGATTAAATGTACGTAAACAAATTTGTAA [XGTACX_site8174]	7.96 ± 0.42
ACCACATAAAACAAATGTACTTGAAATATATGCGTA [XGTACX_site5155]	7.59 ± 0.43
CAAAGGGAAATTAACACACACATATTTATATTTATA [CACACA_site7202]	7.63 ± 0.49
AAAAAAAAAAAAAACACACACATACAGACAAAAATG [CACACA_site83]	8.34 ± 0.61
CTAAATTATAGATCAGTGCAATTTAATATGAGTCCA	8.91 ± 0.22
TTGTAATTATTAAACACACACAAAATATATATAATA [CACACA_site2523]	7.84 ± 0.52
AGGTGAGCTCAGACTACACACACAAAGAAAAAAATA [CACACA_site8439]	7.7 ± 0.53
CCATAAAAATATAATACACACATATATATTAACATA [CACACA_site4102]	7.75 ± 0.35

Sequence	gcPBM binding intensity (ln)
TATATATGTATCAAGTGTACAGTTTTAAAAAAAAAA [XGTACX_site6011]	8.06 ± 0.61
GAACATTTGAAATATGCACACATGTATAAACATACA [CACACA_site5463]	8.85 ± 0.13
ACACACAATACAAAAGTGCATATAATAATTAATCAT	9.945 ± 0.064
TGTTTTTAAAAAAAAAAAAAATCACACCGGCAGGTA [CACACA_negctrl_site1437]	7.62 ± 0.66
TGCGTATATATATACACACACATATATATATTTTAA [CACACA_site1952]	7.64 ± 0.42
TATTTCATTAATGTCACTTTGAAAGAAATGAAAAAA [CACACA_negctrl_site1803]	7.7 ± 0.5
AAAAAAAAAAGACACACACACAAAATAAACAAACAA [CACACA_site7308]	7.95 ± 0.49
CATATTATTCTTTTCACACACGCGTTAATAATAATC [CACACA_site3931]	8.4 ± 0.62
TATTGACATATATTAGTGCAATAATGAAATCAAGTA	10.9 ± 0.43
TTTTTTTGCCATATTACACACACACGGGTAAACCCC [CACACA_site6874]	8.12 ± 0.61
TAAATTTTTATTTGTAGTACTATATATATATATATA [XGTACX_site1026]	9.41 ± 0.36
TTTAATATAACTATTTGTACATAAAGAATATAAATA [XGTACX_site4594]	7.65 ± 0.38
TAATGAAAATATATAACACACAAAAGTTATAAATAT [CACACA_site1189]	7.79 ± 0.67
GTGTTGAATTATGTGCTTTTTTCTTTCTACTCAGTA [XGTACX_negctrl_site464]	8.59 ± 0.55
AAGAGAAAAAGAATGAAAGAAAAAAAAAAAAAATAT [CACACA_negctrl_site1527]	7.76 ± 0.73
CCCACAGACAAAAACACACACAAAGGTGTTCTTATA [CACACA_site4840]	7.52 ± 0.67
TTTTTAAAGGTGATAAAACACACGATTTAGAAATGT [CACACA_site3160]	8.04 ± 0.77
CTACATAAAAAAATATGTACATATATATATATATAT [XGTACX_site667]	9.36 ± 0.43
TTATCGACCAATAAAGCATGCAAAAAAAAAAAAAAA [TGCATGCA_site788]	8.15 ± 0.67
TCGTGCATAAATCATACACACACACCGATATATATA [CACACA_site8767]	11.3 ± 0.67
TCACAATTTTTTAGTACACACATATAAATATATAAA [CACACA_site1537]	8.185 ± 0.035
TTTGTATCCTTTTTGACATGCAACCATTCGGGTACA [TGCATGCA_site506]	7.75 ± 0.77
AAAAAAAAAAAAAACGCACACATTTTTACAATTCTA [CACACA_site3271]	9.03 ± 0.57

Sequence	gcPBM binding intensity (ln)
TCTATTAATTAATATACACACATTATGTATATATAT [CACACA_site2541]	8.07 ± 0.88
TTTCATTAATCTAATAGTACAGAAAATTGAGAAAAA [XGTACX_site8395]	8.11 ± 0.53
GTATACAAACATATAAATATAAATGTATTATTTGTT [CACACA_negctrl_site756]	7.36 ± 0.42
ACTTTAACCTGAACGGTGCATAAAATTTTGGCATTA	10.9 ± 0.35
AAAGATAAAAAAAGTACACACACACCGATATATATA [CACACA_site9006]	8.39 ± 0.7
CACGAACACAAACACAAACACACATCATATATATAT [CACACA_site1322]	9.25 ± 0.16
AATATATATAAAAAGGGAAAAATATATAAATAGATA [XGTACX_negctrl_site52]	7.52 ± 0.55
AAAAAATTGACTAATGCACACAATTACAGATATATA [CACACA_site5010]	10.3 ± 0.4
ATAAAATATATGAAGACACACATAACATCATATTTT [CACACA_site3144]	7.51 ± 0.68
CATAATATGACATACACACACAAAAAAAAAAAAATA [CACACA_site1285]	7.51 ± 0.45
AACCGGGCCTAAGATGTAATGCCTTAGCCTATAAAA [CACACA_negctrl_site479]	7.45 ± 0.81
TTTATATTAAAATATTGTACGGACATTATTTTGTAA [XGTACX_site8128]	7.545 ± 0.064
TAAACATAATATTTAACACACATGAAGATGTATATT [CACACA_site1036]	7.45 ± 0.44
ATAAATATTTACAAAAGTACACATAACTTTAGATAT [XGTACX_site1685]	7.75 ± 0.5
ACAATCCACAGGGGCGCACACATATAAGCAGTATAT [CACACA_site3817]	8.46 ± 0.4
GTTTTGGCTAACTATTCACACATTAAAATATTACCA [CACACA_site5016]	7.99 ± 0.77
CACCATGATACATACACACAGACATATACGCATTCA [CACACA_site1008]	7.93 ± 0.6
TTTGTTGTTTGGAGATGTACATATTTTACACTTTTT [XGTACX_site5965]	8.06 ± 0.44
AAAAAATTAATAAAAACACACAAAAAAAATAAACAA [CACACA_site1907]	7.75 ± 0.77
ATTTCACAGAGACACACACACAATATATTTCCTTTT [CACACA_site7773]	8.02 ± 0.64
TTTTATCAAATATTTATTTTATACATAAATATTTAT [XGTACX_negctrl_site528]	7.76 ± 0.45
ATTTTGTGTAGTGATGCATGTTATATATATATTTGA [TGCATGCA_site422]	8.06 ± 0.63
AGAAACATATGGTAGTGTACTGTAAATTTATTCTTT [XGTACX_site8602]	7.82 ± 0.59

Sequence	gcPBM binding intensity (ln)
ATAACATCAGTATTATGTACATATGTAGGTAAATAA [XGTACX_site7066]	8.05 ± 0.53
CGTTATTATACACATACACACAGGAATAAAAAATTA [CACACA_site7373]	8.1 ± 0.38
TTTTATTGTTTTTTTTTTTTTTCTTTTTTTTTTTTT [CACACA_negctrl_site1094]	7.91 ± 0.46
TACATATTTTGTATATATTATTTATTTTATTAGTTT [XGTACX_negctrl_site85]	7.41 ± 0.2
TTCTGACTTGTTATAATTTGTATATCCGAAAAAATT [TGCATGCA_negctrl_site456]	7.84 ± 0.45
ACTATTATTAAAAATTGTACTTTCTATAAATTTTTT [XGTACX_site7825]	7.79 ± 0.69
GATCTATACATGGGGACACACATCACTCTATATTTT [CACACA_site3408]	8.16 ± 0.63
ATTTGTTATATATTCTTTTATGTTAATAATTCGAAT [CACACA_negctrl_site378]	7.68 ± 0.54
AAAAAATACAAACACACACACACACCCATATATATA [CACACA_site3560]	8.38 ± 0.47
TATGAATAAAAAAGAAGTACAAATTATATGAACGCA [XGTACX_site3018]	8.14 ± 0.52
CATACTGTTATAAAATGTACGCATATACACACACAT [XGTACX_site7256]	8.11 ± 0.37
TTTTGTTTAATATTCACACATATATATTTTTTATTT [CACACA_site5496]	7.79 ± 0.52
CTTTTTATTTAGGAGGTGCATGTAATACGGAACATA	9.8 ± 0.42
GGTAATTTCCTTTTTTGTACTCATAGAAGGATAATA [XGTACX_site89]	7.83 ± 0.55
TTTGAAATATTAAATGCATGTTAAAACATAAAAATG [TGCATGCA_site680]	7.91 ± 0.73
TTTCTTCTTCTATTGTGTACGTAAAAAAAAAAAAAA [XGTACX_site772]	8.31 ± 0.52
TGATAAAATGGGGAAATTCATTATATCATATCTTGG [CACACA_negctrl_site789]	7.51 ± 0.64
TTGGATAAAAAATATGTACACACATATAGATATCTA [CACACA_site8862]	7.73 ± 0.33
ATTATATTAAAATACACACCCAAATATTAAAAAGAT [CACACA_site5613]	8.46 ± 0.44
TTTTTTTTTTGTTGAGTGCAATTATTTGTAAGAAAA	10.1 ± 0.51
